In PubChem BioAssay AID485344 (National Center for Advancing Translational Sciences (NCATS), 2010):
In all, about 340,000 compounds went through this assay and about 6,900 (2%) were called active. Rule as the data show it: active = inhibition above about 30%; inactive = below that, where a call was filed. This is a selection; strong and weak results do not stand in their true shares. Entries without a call were filed so in the source.

Molecular target: D(2) dopamine receptor (Homo sapiens) (UniProt P14416)
Experiment: HTS Assay for Allosteric Antagonists of the Human D2 Dopamine Receptor: Primary Screen for Antagonists; also: 0% is about no effect
Conditions: HEK293 TREx D2 cells, calcium flux, dopamine EC80; at 10 µM; stronger effect = higher value
In short: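 Calcium mobilization kinetics were recorded at 1 s intervals in tetracycline-induced HEK293 T-REx D2 cells, first for 180 s after compound addition and then 180 s after EC80 dopamine.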

Chain of UniProt P14416 (P14416 whole entry, looked up): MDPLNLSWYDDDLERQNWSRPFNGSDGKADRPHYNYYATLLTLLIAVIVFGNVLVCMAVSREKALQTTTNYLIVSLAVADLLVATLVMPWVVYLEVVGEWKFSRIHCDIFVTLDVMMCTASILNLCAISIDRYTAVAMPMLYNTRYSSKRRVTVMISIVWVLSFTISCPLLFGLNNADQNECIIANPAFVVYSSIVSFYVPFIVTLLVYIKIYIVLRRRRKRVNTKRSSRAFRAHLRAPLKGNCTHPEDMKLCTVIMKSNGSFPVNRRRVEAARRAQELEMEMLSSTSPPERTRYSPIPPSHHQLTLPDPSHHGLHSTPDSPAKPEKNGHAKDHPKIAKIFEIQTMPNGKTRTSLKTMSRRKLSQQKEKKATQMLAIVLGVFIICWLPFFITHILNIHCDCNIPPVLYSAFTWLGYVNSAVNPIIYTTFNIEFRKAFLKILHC

SMILES	inhibition
Cc1ccc(CNC(=O)Cn2ccn(-c3ccc(C)c(C)c3)c(=O)c2=O)cc1	-5.8%
Cc1ccc(-n2nc3c(N4CCCC(C(=O)NCCc5ccccc5)C4)nnc(C)c3c2C)cc1 (stereo unspecified)	-20.2%
COc1cccc(C(=O)Nc2c(C(=O)NC(C)(C)C)oc3ccccc23)c1	-3.89%
Cc1ccc(CCNC(=O)Cn2c(-c3cccs3)cc3cc(F)ccc32)cc1	-14.3%
CCC1CCCCN1CCCNC(=O)CN1C(=O)CSc2ccc(S(=O)(=O)N3CCC(C)CC3)cc21 (stereo unspecified)	-12.2%
Cc1cc(C)c2oc(-c3cccc(NC(=O)c4ccco4)c3)nc2c1	-5.43%
COCCCNC(=O)CCC(=O)N1Cc2ccccc2Oc2ncccc21	8.06%
Cc1cc2c(c3oc(=O)c4ccccc4c13)CN(Cc1ccc(F)cc1)CO2	4.19%
O=C(Nc1cccc(Cl)c1)Nc1ccccc1OCc1cc(=O)n2ccccc2n1	14.5%
NC(N)=N/N=C/c1ccc(OS(=O)(=O)c2ccccc2)cc1	active: 30.2%
CCOc1ccccc1NC(=O)c1sc(-n2nc(C)c(CCC(C)C)c2C)nc1C	4.07%
Cc1ccc(Cl)cc1N1CCN(C(=O)c2ccc3c(c2)N(Cc2ccccc2F)C(=O)c2ccccc2S3(=O)=O)CC1	1.79%
Cc1nc2c(C(=O)N(C)Cc3ccccc3)c[nH]n2c(=O)c1Cc1ccc(Cl)cc1	13.5%
CCc1ccc(S(=O)(=O)Nc2ccc(-c3ccc(N4CCCCCC4)nn3)cc2)cc1	5.97%
O=C(NCc1ccccc1)c1nc(-c2cccs2)no1	active: 36.3%
CC(=O)C1=C(c2ccc(Cl)c(Cl)c2)N(C(C)=O)n2c(C)nnc2S1	24.9%
CCS(=O)(=O)N1Cc2ccccc2CC1C(=O)Nc1cccc(OC)c1 (stereo unspecified)	active: 34.4%
CCCSCCCNC(=O)CN1C(=O)COc2ccc(S(=O)(=O)N3CCC(C)CC3)cc21	4.6%
Cc1cccc(C)c1NC(=O)c1oc2c(c1C)-c1nn(Cc3ccccc3)cc1CC2	-2.91%
CCN(CC)CCCNC(=O)Cn1nc(N2CCN(c3ccccc3OC)CC2)ccc1=O	5.9%
CN1C(=O)Cc2cc(S(=O)(=O)CCC(=O)Nc3ccccc3)ccc21	1.3%

SMILES	inhibition
COc1cc(OC)c(N(C)C(=O)c2nn(C)c3c2CSc2ccccc2-3)cc1Cl	17.6%
COc1cccc(CNC(=O)c2cc(-c3cccc(OC)c3)n[nH]2)c1	4.83%
COc1cc(C(=O)Nc2cc(S(C)(=O)=O)ccc2Cl)ccc1OCC(=O)N1CCOCC1	active: 35.6%
Cc1ccc(N2CCN(C(=O)CCc3c(C)nc4c(c3C)c(=O)n(C)c(=O)n4C)CC2)c(C)c1	-13.9%
O=C(CCn1cnc2ccccc2c1=O)NCc1ccccc1	-14.7%
CCOc1ccc(N(C)S(=O)(=O)c2c(C(=O)N3CCC(C)CC3)c(C)n(C)c2C)cc1	-1.1%
COc1ccc(Cl)cc1NS(=O)(=O)c1cccc(C(=O)NCC(c2ccco2)N(C)C)c1 (stereo unspecified)	active: 60.4%
Cc1cccc(-n2ncc(C(=O)N3CCN(Cc4ccccc4)CC3)c2C2CCN(C(=O)OC(C)(C)C)CC2)c1	6.3%
Cc1ccc(NC(=O)Cn2nnc3sc4c(c3c2=O)CCC(C)C4)cc1 (stereo unspecified)	-0.363%
COc1ccc(Cn2c(CCC(=O)Nc3ccc(C)cc3)nc3cccnc32)cc1	23.6%
CCOc1ccccc1NC(=O)N1c2ccccc2Sc2ccccc21	-9.86%
Cc1cc(C)n(-c2nc3cc(Cl)ccc3nc2Nc2ccc(C)c(F)c2)n1	-3.09%
O=C1c2ccccc2C(O)N1Cc1cccs1 (stereo unspecified)	active: 46.8%
CCn1ccc2cc(S(=O)(=O)N3CCC(C(=O)NCc4cccc(Cl)c4)CC3)ccc21	12.4%
CC(C)(C)c1ccc(OC(=O)N2CCOCC2)cc1	active: 31.9%
Cc1cc(C)c(NC(=O)c2cc(S(=O)(=O)NCCC3=CCCCC3)ccc2F)c(C)c1	-10.9%
Cc1ccc(-n2ncc(C(=O)NCCN3CCCC3)c2C2CCN(C(=O)OC(C)(C)C)CC2)cc1	11.5%
Cc1cccc(OCCCN2CCCCCC2)c1	active: 40.3%
CCn1c(SCc2cccc(Br)c2)nnc1-c1nonc1NC(C)=O	-9.01%
CC(C)CNC(=O)C(=O)Nc1c2c(nn1-c1ccccc1)CS(=O)(=O)C2	5.67%
CC(=O)Nc1cc(C(=O)NCc2ccc(C)cc2)ccc1S(=O)(=O)c1ccc(Cl)cc1	25.6%

SMILES	inhibition
CCOC(=O)CN1C(C(=O)c2ccccc2)=C(OC(=O)C(C)(C)C)c2ccccc2S1(=O)=O	-14.9%
CSc1cccc(NC(=O)Cn2c(=O)n(Cc3ccccc3)c(=O)c3sc4ccccc4c32)c1	-8.33%
COCCCn1c(=N)c(C(=O)NCc2ccco2)cc2c(=O)n3cccc(C)c3nc21	1.58%
CCOC(=O)c1c(NC(=O)COc2ccc(Br)cc2)sc2c1CCCC2	-3.55%
CCc1ccccc1NC(=O)Nc1cc(C(=O)NCc2cccc(F)c2)ccc1N1CCCC1	1.05%
CCc1ccc(S(=O)(=O)c2nnn3c2nc(Nc2ccc(C)c(Cl)c2)c2sccc23)cc1	-13.3%
O=C(Cn1ncn2nc(-c3cccs3)cc2c1=O)NCc1ccc(Cl)cc1	20.1%
Cc1oc(-c2cccc(Cl)c2)nc1CN1CCCC(C(=O)NCCc2ccc(Cl)cc2)C1 (stereo unspecified)	10.2%
COCCNC(=O)CCn1c(=O)c2cc(OC)c(OC)cc2n(CC(=O)Nc2ccccc2C)c1=O	1.26%
CS(=O)(=O)NCC(c1ccco1)N1CCN(c2ccc(F)cc2)CC1 (stereo unspecified)	-25.1%
CCc1ccc(NC(=S)NC2CC3CCCC(C2)N3Cc2cccs2)cc1 (stereo unspecified)	active: 64.5%
O=S(=O)(c1ccc(-c2cc(C(F)(F)F)on2)s1)N1CCN(c2ccccc2)CC1	4.41%
CCOC(=O)c1cnc2c(Cl)cc(Cl)cc2c1Nc1cc(C(=O)O)ccc1C	1.1%
Cc1cccc(NC(=O)c2ccc3c(O)c(S(=O)(=O)c4ccccc4)c(=O)[nH]c3c2)c1C	-1.27%
COc1ccc(C(=O)C(C)OC(=O)c2sc(C)nc2C)cc1 (stereo unspecified)	active: 31%
COc1ccc(Cl)cc1NC(=O)CSc1nc2ccccc2c2nc(-c3ccccc3)nn12	-4.49%
O=C(Nc1ccc2nc(SCC(=O)N3CCc4ccccc43)sc2c1)c1cccc(F)c1	14.4%
Cc1ccccc1-c1nc(CS(=O)(=O)CC(=O)NCCc2ccccc2)c(C)o1	-8.69%
Cc1ccc(C(=O)N2CCc3cc(CNC(=O)c4ccc(Br)cc4)ccc32)cc1	-0.356%
